Laboratory results taken from PMC5007379.
Results are given in words; binding and its absence hold for the method and conditions named. Binding seen in cells or lysates may run through a third protein. Some results given as binding are weak or reduced against the parent protein; the word gives no strength. Each block holds one substance with its values, some of them ahead of it.

Amino acid sequences for entries named in this document (tags omitted). A change or cut given only in a name is not applied to a line headed by its entry. Residues count along the entry.
UniProt P52732: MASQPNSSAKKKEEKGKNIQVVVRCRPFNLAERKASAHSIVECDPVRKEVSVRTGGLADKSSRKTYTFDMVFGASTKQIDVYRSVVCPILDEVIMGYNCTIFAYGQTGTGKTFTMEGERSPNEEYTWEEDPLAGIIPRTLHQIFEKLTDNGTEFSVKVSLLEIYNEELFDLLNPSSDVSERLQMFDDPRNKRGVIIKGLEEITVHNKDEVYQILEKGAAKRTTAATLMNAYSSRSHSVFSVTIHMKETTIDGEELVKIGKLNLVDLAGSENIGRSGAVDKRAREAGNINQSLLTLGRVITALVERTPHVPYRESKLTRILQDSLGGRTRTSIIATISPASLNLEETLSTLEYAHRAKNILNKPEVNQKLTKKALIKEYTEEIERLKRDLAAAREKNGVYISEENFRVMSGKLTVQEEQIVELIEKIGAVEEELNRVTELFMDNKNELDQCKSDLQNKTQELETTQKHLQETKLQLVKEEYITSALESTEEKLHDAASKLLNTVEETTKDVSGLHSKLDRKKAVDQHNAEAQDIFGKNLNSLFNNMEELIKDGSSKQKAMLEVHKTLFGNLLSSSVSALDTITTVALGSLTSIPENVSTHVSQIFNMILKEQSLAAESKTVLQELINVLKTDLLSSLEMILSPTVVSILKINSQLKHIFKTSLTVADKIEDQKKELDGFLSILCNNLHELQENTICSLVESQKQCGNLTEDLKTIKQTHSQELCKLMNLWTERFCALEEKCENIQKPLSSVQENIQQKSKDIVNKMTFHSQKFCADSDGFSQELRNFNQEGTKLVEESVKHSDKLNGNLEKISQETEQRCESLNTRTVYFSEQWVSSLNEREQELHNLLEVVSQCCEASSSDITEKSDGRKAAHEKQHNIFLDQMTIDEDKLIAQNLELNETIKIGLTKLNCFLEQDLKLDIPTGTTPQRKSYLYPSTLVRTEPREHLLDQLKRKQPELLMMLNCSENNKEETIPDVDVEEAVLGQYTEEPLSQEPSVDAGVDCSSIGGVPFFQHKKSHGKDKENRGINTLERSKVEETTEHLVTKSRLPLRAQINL
GST-Eg5C: residues 790-1056 of P52732
UniProt Q5VTR2: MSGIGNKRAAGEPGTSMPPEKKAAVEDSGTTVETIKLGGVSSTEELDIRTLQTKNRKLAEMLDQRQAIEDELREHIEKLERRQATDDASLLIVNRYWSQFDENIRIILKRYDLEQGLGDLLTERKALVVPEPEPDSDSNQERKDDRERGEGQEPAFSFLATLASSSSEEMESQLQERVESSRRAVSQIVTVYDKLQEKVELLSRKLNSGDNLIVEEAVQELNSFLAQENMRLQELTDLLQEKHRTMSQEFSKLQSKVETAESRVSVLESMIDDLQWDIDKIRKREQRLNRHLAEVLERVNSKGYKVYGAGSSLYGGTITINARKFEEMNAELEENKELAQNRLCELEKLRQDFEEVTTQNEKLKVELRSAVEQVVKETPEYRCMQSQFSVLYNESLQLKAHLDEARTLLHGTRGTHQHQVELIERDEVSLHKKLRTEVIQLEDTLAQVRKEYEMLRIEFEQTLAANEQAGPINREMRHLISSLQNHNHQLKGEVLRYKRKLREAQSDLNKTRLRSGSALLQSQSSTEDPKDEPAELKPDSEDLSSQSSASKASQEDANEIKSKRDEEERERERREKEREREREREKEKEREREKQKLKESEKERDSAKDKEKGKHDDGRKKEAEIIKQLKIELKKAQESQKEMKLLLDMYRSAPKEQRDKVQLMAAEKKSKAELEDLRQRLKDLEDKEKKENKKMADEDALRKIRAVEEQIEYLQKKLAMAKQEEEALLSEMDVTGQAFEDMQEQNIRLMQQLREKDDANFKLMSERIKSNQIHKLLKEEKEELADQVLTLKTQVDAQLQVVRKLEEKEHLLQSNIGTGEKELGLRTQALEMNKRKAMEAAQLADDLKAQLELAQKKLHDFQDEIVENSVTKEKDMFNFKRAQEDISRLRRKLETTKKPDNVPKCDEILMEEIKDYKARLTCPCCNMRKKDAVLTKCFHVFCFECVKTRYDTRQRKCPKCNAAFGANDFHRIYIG
UniProt O75150: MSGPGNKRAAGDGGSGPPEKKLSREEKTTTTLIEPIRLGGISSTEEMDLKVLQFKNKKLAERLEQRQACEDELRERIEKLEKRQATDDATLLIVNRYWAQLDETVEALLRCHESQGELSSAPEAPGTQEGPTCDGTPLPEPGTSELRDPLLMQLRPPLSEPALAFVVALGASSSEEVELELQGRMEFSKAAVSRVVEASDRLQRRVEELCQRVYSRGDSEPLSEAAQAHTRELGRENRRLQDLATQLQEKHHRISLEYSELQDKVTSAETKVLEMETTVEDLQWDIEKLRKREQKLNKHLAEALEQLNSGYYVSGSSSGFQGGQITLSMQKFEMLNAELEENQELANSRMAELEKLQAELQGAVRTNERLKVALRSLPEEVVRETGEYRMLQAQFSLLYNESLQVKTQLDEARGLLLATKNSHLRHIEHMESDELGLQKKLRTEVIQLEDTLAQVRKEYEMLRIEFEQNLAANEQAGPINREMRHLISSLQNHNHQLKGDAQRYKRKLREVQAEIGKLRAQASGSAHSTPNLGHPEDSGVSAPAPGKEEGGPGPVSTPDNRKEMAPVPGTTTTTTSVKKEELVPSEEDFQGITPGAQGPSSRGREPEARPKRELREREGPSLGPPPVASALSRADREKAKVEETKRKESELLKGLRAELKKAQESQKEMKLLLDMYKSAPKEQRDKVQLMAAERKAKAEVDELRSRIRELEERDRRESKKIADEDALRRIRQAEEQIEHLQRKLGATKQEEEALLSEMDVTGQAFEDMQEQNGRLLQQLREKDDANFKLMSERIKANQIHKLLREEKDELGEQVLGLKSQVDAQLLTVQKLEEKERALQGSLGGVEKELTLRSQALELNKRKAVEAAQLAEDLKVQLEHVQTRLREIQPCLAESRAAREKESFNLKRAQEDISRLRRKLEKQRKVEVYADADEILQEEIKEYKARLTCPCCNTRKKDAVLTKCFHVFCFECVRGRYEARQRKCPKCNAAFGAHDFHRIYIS

Key:
[1] = biological target: GST-Eg5C (UniProt P52732); assay: pull-down; GST pull-down with bacterially expressed GST-Eg5 or bacterially purified GST-Eg5 truncations and in vitro transcribed/translated RNF20 or RNF40; only the target purified
[2] = biological target: Eg5 (endogenous) (human (endogenous in HeLa, MCF-7, PANC-1)) (UniProt P52732); assay: co-IP; antibodies against endogenous RNF20, RNF40 or Eg5, then immunoblotting; total proteins of HeLa, MCF-7 and PANC-1 cells; also HeLa cells 8 h after release from a double thymidine block (G2/M)
[3] = biological target: Eg5 (endogenous) (human (endogenous in HeLa, MCF-7, PANC-1)) (UniProt P52732); assay: condition: only interphase cells (G1/S, 0 h after release from double thymidine block); co-IP; HeLa cells synchronized at G1/S by double thymidine block, collected 0 h after release (interphase); immunoprecipitation with antibodies against the indicated proteins, then immunoblotting
[4] = biological target: RNF20 (endogenous) (human (endogenous in HeLa, MCF-7, PANC-1)) (UniProt Q5VTR2); assay: co-IP; antibodies against endogenous RNF20, RNF40 or Eg5, then immunoblotting; total proteins of HeLa, MCF-7 and PANC-1 cells; also HeLa cells 8 h after release from a double thymidine block (G2/M)
[5] = biological target: RNF40 (endogenous) (human (endogenous in HeLa, MCF-7, PANC-1)) (UniProt O75150); assay: as above

- binding [1]: binds
Substance: in vitro transcribed/translated RNF20 (from UniProt Q5VTR2 1-975)

- binding [2]: binds
- binding [3]: no binding
Substance: RNF20 (endogenous) (from UniProt Q5VTR2 1-975)

- binding [4]: binds
- binding [5]: binds
Substance: Eg5 (endogenous) (from UniProt P52732 1-1056)
